In the supplement of paper PMC11417369:
± gives the standard deviation of the averaged measurements. Some of the results follow.

system: PfAP2-LT AP2 domain (GST-tagged); assay: gcPBM binding intensity (ln(normalized median fluorescence intensity)); higher = stronger DNA binding
Summary of the method: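 Binding intensity is the highest Masliner-normalised natural-log median intensity over replicate spots in either probe orientation. To obtain it, GST-tagged P. falciparum DNA-binding domains made in E. coli were incubated for 1 h on an Agilent 4 × 180k array of primer-extended double-stranded 36-bp intergenic genomic probes plus negative controls. Detection used Alexa488 anti-GST antibody with scanning at 488 nm.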

| Sequence | gcPBM binding intensity (ln) |
| --- | --- |
| ATTCTACGCACGCGCACACACAACAAAAAAAAAAAA [CACACA_site3538] | 9.27 ± 0.56 |
| CATGTGTGATAATGATGTACTATATTAAGCTAGTCC [XGTACX_site2690] | 8.93 ± 0.46 |
| TATATACATATATATTGTACTTATTTTTATAATGTC [XGTACX_site3453] | 8.87 ± 0.46 |
| TTTATAATTCTTACAACACACAATGTACTTTTATAT [CACACA_site8340] | 8.93 ± 0.45 |
| TTTATTTCCTTTTTGTGTACATATATATGTAATTCA [XGTACX_site1718] | 8.78 ± 0.53 |
| TTAAGGCATCAACATAGTACAATTTTTCTATAATAA [XGTACX_site1114] | 8.48 ± 0.47 |
| ATTTAATACAAATACACACACAAATAAATACAGATA [CACACA_site5956] | 9.47 ± 0.26 |
| TTAAATGTAATATAATGTACGGATATTTACCATAAA [XGTACX_site1472] | 8.45 ± 0.45 |
| TAAATATATTGGAGAGGTACACTTTTGGCATTGAAA [XGTACX_site8447] | 8.62 ± 0.46 |
| TTATTTTTTTATTCATGTACACAAGAACATTTCATT [XGTACX_site5744] | 8.65 ± 0.42 |
| GTATATATAATGTGCCGTACATTTATATATTCAATA [XGTACX_site1051] | 8.73 ± 0.38 |
| GTATAATAGAAACACACACACACACCCAAAAAAAAA [CACACA_site2010] | 10.3 ± 0.39 |
| TTGTAATAAATAAAAGTGCATATATGGTTCCACTAT [GTGCAC_site9944] | 8.63 ± 0.51 |
| AAGTATGTATCACAAAGTACTTAAGCATATATTTAA [XGTACX_site4121] | 8.87 ± 0.46 |
| TATAATTATATAAATTGTACATAAAAAGTTTTTACT [XGTACX_site3621] | 8.36 ± 0.4 |
| TATTATATCTTTTCAAGTACACATAACATACTTATT [XGTACX_site1081] | 8.81 ± 0.49 |
| ACATATTAAATATGAGTGCAATATATATATATATAA | 9.07 ± 0.35 |
| TATATATACTTTTATGTACACACCTATAATATGGGT [CACACA_site1759] | 9.24 ± 0.48 |
| AAATGTAATAATAAATGTACAAACATATATATGTAT [XGTACX_site8718] | 8.98 ± 0.4 |

| Sequence | gcPBM binding intensity (ln) |
| --- | --- |
| AAGTTTAAAATCTTTGCACACATATAAATAAATATA [CACACA_site2554] | 8.85 ± 0.38 |
| TGCACCCACCAACACACACACAACTAAAAAATAATG [CACACA_site2566] | 9.71 ± 0.42 |
| ATAAATAAATAAAAAAGTACATTTCCACTTTTAACA [XGTACX_site81] | 8.52 ± 0.5 |
| CAATATATTATATGGGTGCAAACCACATATAAATAA | 8.77 ± 0.43 |
| TTAGGTATATATAAACGTACTCACAATATCATATAA [XGTACX_site8743] | 8.71 ± 0.45 |
| TTGTCTACAAAAATGTGCTTCTAATCATACGACTTG [CACACA_negctrl_site46] | 8.61 ± 0.43 |
| TACATATATTATTGCACACATATAAAATACCCCCAA [CACACA_site3895] | 9.47 ± 0.15 |
| CAGTTTACTAATATTGCACACGAATATGAAAAAGAG [CACACA_site8941] | 8.99 ± 0.45 |
| TTATCATTTGCCATTGTGCACTTATATGCTCACATT | 9.21 ± 0.44 |
| AAAAAAAATTATGAAGTGCATTAGTGAATTTGATTG | 8.61 ± 0.44 |
| TTTTTTTTTCAAGAGGTGCGTGTATTTTAACAAAAA | 8.37 ± 0.3 |
| TTTTTCACACTTCAAAAGTGTCAACCTTCTATTCTC [TGCATGCA_negctrl_site489] | 8.95 ± 0.45 |
| CACAAATATACAAATACACACAAATATACAAATACA [CACACA_site2385] | 9.42 ± 0.44 |
| GTAAAATTTACATAGAGTACTTATATTTTTTTCTGC [XGTACX_site3414] | 8.6 ± 0.42 |
| TAAAGTGTAAAATTCACACACATATATATATATATA [CACACA_site4883] | 9.975 ± 0.078 |
| ATATTGTAAGTAAACACACACACATATATCTGTATA [CACACA_site4541] | 9.55 ± 0.2 |
| ATTTTTTTTATTATTACACACATATAATAAAAAAAT [CACACA_site1802] | 8.61 ± 0.3 |
| ATTTTTTTTTTCTTTTTTTTTTGTTTTTCTCCTTTT [CACACA_negctrl_site1182] | 8.71 ± 0.54 |
| GTATAATTTATTGAACGTACACATATATATATGTAT [XGTACX_site1395] | 8.92 ± 0.35 |

| Sequence | gcPBM binding intensity (ln) |
| --- | --- |
| AATAAAATGCAATACATTTTGTTATATAATGTTGTT [CACACA_negctrl_site1525] | 8.64 ± 0.4 |
| CACAATGTAGTGTATAAATACAATAAAAGGTTGTAT [CACACA_negctrl_site700] | 9.1 ± 0.47 |
| AAATGTATAGGAATAATAATAAAAAAAAAAAAAAAT [CACACA_negctrl_site1793] | 8.72 ± 0.64 |
| ATCATTCCACTTTTCACACATATCTCTATTTCTATC [CACACA_site4723] | 9.15 ± 0.57 |
| AAAAAAAATAAAATAATAAAAATTATGAATATATAT [CACACA_negctrl_site280] | 8.51 ± 0.52 |
| TGGAGGTCAGTTCACAGTACCCAGTAACTCTACGGA [XGTACX_site2549] | 8.64 ± 0.38 |
| ATAGGTAATAATAATACACACGGTGAAATATAGATG [CACACA_site9336] | 9.29 ± 0.44 |
| TATTTCTTATTACATACACACATATACATAGATGAC [CACACA_site5729] | 9.07 ± 0.29 |
| TCTTGTCTACCTTGTATTTAATATTTACATATATAA [TGCATGCA_negctrl_site320] | 8.85 ± 0.45 |
| TATTTGTAAAAATTGTGTACTTAGAAAATTCCAAAA [XGTACX_site6007] | 8.28 ± 0.4 |
| TTCTTGTATATATTTTGTACATATATACCATTTTAG [XGTACX_site2409] | 9.06 ± 0.46 |
| TATATGTTTTTATGTACACACTTTTAACCTAAGAAA [CACACA_site4769] | 8.68 ± 0.38 |
| ATTTATATATAGGTGTGTCCACAAATAGTATGTAAA [XGTACX_site2916] | 9 ± 0.41 |
| GTATATAGTATGTAGAGTACTAATTTCCATATGTTC [XGTACX_site7816] | 8.81 ± 0.44 |
| CAATATTTTCATAGATGTACTTTGGACTTATTATAT [XGTACX_site4849] | 8.73 ± 0.44 |
| GAACGAAATAAGTGTGTGCACATGTAACCACAAATC [GTGCAC_site9829] | 9.71 ± 0.49 |
| AATTAATATATAAATAATAAAAAAAAATATATAAAC [XGTACX_negctrl_site280] | 8.73 ± 0.57 |
| TAAATAAAAGATACGAGTACGTATGATGTTAACCTC [XGTACX_site8840] | 8.96 ± 0.49 |
| CTTATTTAATGTATCACACACGAGAATAAAAAATAA [CACACA_site3020] | 8.84 ± 0.5 |
